From the BET-seq Pho4 binding data (Le et al. 2018) come the findings set out here.

Some of the results follow. These are noisy estimates, calculated here from bound and input reads.

The assay addresses T1, Pho4 (S. cerevisiae) (UniProt P07270).
T1 sequence: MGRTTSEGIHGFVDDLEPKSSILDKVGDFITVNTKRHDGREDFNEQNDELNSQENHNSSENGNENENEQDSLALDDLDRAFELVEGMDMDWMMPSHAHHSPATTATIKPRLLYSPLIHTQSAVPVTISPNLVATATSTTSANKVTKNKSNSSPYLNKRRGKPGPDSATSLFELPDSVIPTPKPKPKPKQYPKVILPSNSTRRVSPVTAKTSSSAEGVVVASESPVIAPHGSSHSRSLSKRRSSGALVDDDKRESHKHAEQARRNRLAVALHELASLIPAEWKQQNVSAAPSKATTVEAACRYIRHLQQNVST
Briefly: relative binding free energy (BET-seq); higher = weaker binding. The settings on record: reference: library average.
As to ATCTTCACGTGGTGTG, the “relative binding free energy” value worked out at 0.19 kcal/mol. The figure for GTTTGCACGTGGTGTT is -0.04 kcal/mol; for GGTAACACGTGTTGAC it is 0.21 kcal/mol; for TTATCCACGTGTTAGT it is 0.1 kcal/mol. In the case of TCGTTCACGTGAAGGT it was 0.46 kcal/mol; in that of GACTGCACGTGTTATG, 0.02 kcal/mol; in that of TAAAACACGTGTTGGG, 0.16 kcal/mol. In the case of GGTTGCACGTGCAGGA it was -0.02 kcal/mol; in that of TTATCCACGTGTGTTG, -0.02 kcal/mol; in that of GTTTGCACGTGTCTCT, 0.2 kcal/mol.

Regarding TTGTGCACGTGGTGCC, the “relative binding free energy” value was -0.08 kcal/mol. The figure for TGGTGCACGTGGTTGA is 0.07 kcal/mol; for AGGCTCACGTGGTCGT it is 0.04 kcal/mol. The figure for TGTATCACGTGGGCCT is 0.14 kcal/mol; for AGACGCACGTGGGGCG it is -0.23 kcal/mol; for GCTTGCACGTGACGGT it is 0.16 kcal/mol. For TTTGTCACGTGGATAT, the “relative binding free energy” value worked out at 0.03 kcal/mol.

For TAGGTCACGTGTGTGT, the “relative binding free energy” value is 0.15 kcal/mol.

On to TTATCCACGTGAGGGA, for which the “relative binding free energy” value is 0.19 kcal/mol. In the case of TTGAGCACGTGGCGTG it was -0.13 kcal/mol; in that of TCCGGCACGTGTTTGG, 0 kcal/mol; in that of ATGGTCACGTGGCGGG, -0.11 kcal/mol.

As to TATGTCACGTGACTTG, the “relative binding free energy” value was 0.03 kcal/mol. Turning to TATGTCACGTGGCTAG, the “relative binding free energy” value is -0.1 kcal/mol.

Turning to TGCGGCACGTGATGTT, the “relative binding free energy” value was -0.06 kcal/mol. As to GTGGTCACGTGATGTA, the “relative binding free energy” value was 0.14 kcal/mol. In the case of AGTGCCACGTGGGGAA it was -0.2 kcal/mol. In the case of CGCGTCACGTGATGGG it was 0.11 kcal/mol. In the case of GAGGCCACGTGTTGGC it was 0.18 kcal/mol; in that of GGTCGCACGTGCGGTT, -0.04 kcal/mol. With TTGCGCACGTGGGGTG, the “relative binding free energy” value was -0.21 kcal/mol. As to TTAAGCACGTGTGTGA, the “relative binding free energy” value was -0.13 kcal/mol. In the case of ATGCGCACGTGTGTTG it was -0.19 kcal/mol; in that of TAAGTCACGTGCAGTA, 0.07 kcal/mol; in that of TTGAGCACGTGGCTGT, -0.16 kcal/mol.

As to AGTCGCACGTGGGTAA, the “relative binding free energy” value was -0.26 kcal/mol. As for AAGTGCACGTGCTTTT, the “relative binding free energy” value was -0.09 kcal/mol. The figure for AGGAACACGTGGTTGG is -0.01 kcal/mol. Turning to TGATACACGTGGAATT, the “relative binding free energy” value amounted to 0.24 kcal/mol. As for TACAGCACGTGGATGT, the “relative binding free energy” value worked out at 0.02 kcal/mol. TATGCCACGTGGAGTT: the “relative binding free energy” value was -0.1 kcal/mol.

For GTATACACGTGAGTCG, the “relative binding free energy” value worked out at 0.37 kcal/mol. Take CGTGGCACGTGGCACG: the “relative binding free energy” value was -0.14 kcal/mol. In the case of GGCGCCACGTGGGTTT it was -0.16 kcal/mol; in that of TGGTGCACGTGGTTAA, -0.1 kcal/mol. The figure for GGTCTCACGTGGGGAT is 0.14 kcal/mol; for AAGATCACGTGGTTAG it is 0.16 kcal/mol; for TGTACCACGTGGTGTG it is -0.16 kcal/mol. In the case of ATCGCCACGTGTGTGT it was -0.03 kcal/mol; in that of GGTGTCACGTGTAATT, 0.2 kcal/mol; in that of TAGTACACGTGTATGA, 0.05 kcal/mol. For CGTTACACGTGCTGGG, the “relative binding free energy” value was found to be 0.05 kcal/mol. The figure for GGAGTCACGTGATTTT is 0.27 kcal/mol.

TTAGACACGTGTGTGG: the “relative binding free energy” value turned out to be 0.13 kcal/mol. The figure for TGGTGCACGTGGGCGT is -0.17 kcal/mol; for AATAGCACGTGGCTGT it is -0.16 kcal/mol; for TTTAACACGTGATTGG it is 0.18 kcal/mol. In the case of TCGGGCACGTGGTACT it was -0.16 kcal/mol; in that of GGTCGCACGTGGTCTT, -0.04 kcal/mol; in that of GTAATCACGTGTAAGT, 0.08 kcal/mol. The figure for GTAGACACGTGAGTGG is 0.2 kcal/mol. Regarding GGTGGCACGTGGAGAG, the “relative binding free energy” value was 0.07 kcal/mol. The figure for ACTGGCACGTGCTGGG is -0.07 kcal/mol; for ATATTCACGTGGCTGG it is 0.07 kcal/mol; for TGGGTCACGTGTCGTG it is 0.15 kcal/mol. For TGTAACACGTGGTGTT, the “relative binding free energy” value is -0.07 kcal/mol. In the case of GTCAACACGTGGGTTT it was 0.02 kcal/mol. In the case of TGGCACACGTGGGTGT it was -0.17 kcal/mol.

ATTATCACGTGTTTGG: the “relative binding free energy” value amounted to 0.15 kcal/mol. As for TTTAGCACGTGGTCTT, the “relative binding free energy” value is -0.07 kcal/mol.

Consider TTGTGCACGTGAAACG, for which the “relative binding free energy” value amounted to 0.13 kcal/mol. As for TGACGCACGTGGCAGG, the “relative binding free energy” value is -0.17 kcal/mol.

Take GTATACACGTGGTGGG: the “relative binding free energy” value was 0.03 kcal/mol. On to TGGGTCACGTGGGCAA, for which the “relative binding free energy” value amounted to 0.03 kcal/mol. In the case of GTATGCACGTGTCAGT it was 0.08 kcal/mol; in that of GTGAGCACGTGACATG, 0.15 kcal/mol. In the case of TTTGGCACGTGTCTTT it was 0 kcal/mol; in that of AAATGCACGTGGGGTT, -0.19 kcal/mol. The figure for GGTAGCACGTGTGGGA is -0.02 kcal/mol; for TGGCGCACGTGTCGTT it is -0.08 kcal/mol; for AAATGCACGTGAGGCG it is 0.2 kcal/mol. For GGTAGCACGTGGGACA, the “relative binding free energy” value was -0.17 kcal/mol. The figure for TTTAGCACGTGTTGTA is 0 kcal/mol; for GTTTGCACGTGTGCAG it is 0.17 kcal/mol; for TGCAACACGTGTTGTG it is -0.11 kcal/mol. The figure for TAATGCACGTGAGGCG is 0.08 kcal/mol; for TGTGCCACGTGATTTA it is 0.02 kcal/mol. The figure for AGATACACGTGTGGTT is 0.14 kcal/mol; for GGTTGCACGTGGGTGA it is -0.02 kcal/mol; for TCTTTCACGTGGGTTA it is 0.27 kcal/mol. For GGGTTCACGTGATCGT, the “relative binding free energy” value is 0.44 kcal/mol.

For the sequence TGTCTCACGTGAGGGA, the “relative binding free energy” value was determined as 0.37 kcal/mol. For TTTGACACGTGTAACG, the “relative binding free energy” value was determined as 0.17 kcal/mol. The figure for GGTGGCACGTGCGGTG is -0.07 kcal/mol. The figure for CAGGGCACGTGTAGTA is -0.13 kcal/mol; for GAGCACACGTGTGGTG it is 0.14 kcal/mol; for TTCTACACGTGATGGA it is 0.24 kcal/mol. The figure for CGGTGCACGTGTAGGC is 0.14 kcal/mol; for AATTACACGTGCGTGT it is 0.06 kcal/mol; for TTCAGCACGTGTGCGT it is -0.08 kcal/mol. Take GGCGTCACGTGAGGGC: the “relative binding free energy” value was found to be 0.15 kcal/mol. In the case of GGGAACACGTGGCGGA it was -0.15 kcal/mol; in that of GAGGGCACGTGCGTGT, -0.15 kcal/mol; in that of CGGGGCACGTGAATGA, 0.18 kcal/mol. The figure for GAATGCACGTGTGCGG is 0.27 kcal/mol; for ATTGGCACGTGAGTGC it is 0.15 kcal/mol; for GGCCGCACGTGTTAGG it is 0.03 kcal/mol. The figure for CTGTTCACGTGTGCGA is 0.39 kcal/mol. Consider TAGCTCACGTGGAGTG, for which the “relative binding free energy” value was determined as 0.14 kcal/mol. In the case of ATATGCACGTGAGTTT it was 0.15 kcal/mol. The figure for GTTATCACGTGCAGTT is 0.2 kcal/mol. In the case of ATGTACACGTGAGGAA it was 0.17 kcal/mol; in that of GAGGGCACGTGGATGC, 0.01 kcal/mol; in that of AAGGTCACGTGTAAGA, 0.39 kcal/mol. Regarding ATGGTCACGTGGGTTC, the “relative binding free energy” value came out at 0.1 kcal/mol.
